Measurements from the supplement of paper PMC3334620.
In all, about 33,000 sequences were measured (“E-score (-0.5 to 0.5)”: median about -0.043, highest 2% from about 0.37 on). This is one part of the list.

What follows are sequences tested against T1, Upc2 (UniProt Q12151) (assay: PBM E-score (8-mer binding enrichment) (E-score (-0.5 to 0.5)); higher = stronger / more preferred TF binding; most listed sequences are background and not binding sites). Settings: protein concentration: 200 nM; construct: GST-full length.
T1 sequence: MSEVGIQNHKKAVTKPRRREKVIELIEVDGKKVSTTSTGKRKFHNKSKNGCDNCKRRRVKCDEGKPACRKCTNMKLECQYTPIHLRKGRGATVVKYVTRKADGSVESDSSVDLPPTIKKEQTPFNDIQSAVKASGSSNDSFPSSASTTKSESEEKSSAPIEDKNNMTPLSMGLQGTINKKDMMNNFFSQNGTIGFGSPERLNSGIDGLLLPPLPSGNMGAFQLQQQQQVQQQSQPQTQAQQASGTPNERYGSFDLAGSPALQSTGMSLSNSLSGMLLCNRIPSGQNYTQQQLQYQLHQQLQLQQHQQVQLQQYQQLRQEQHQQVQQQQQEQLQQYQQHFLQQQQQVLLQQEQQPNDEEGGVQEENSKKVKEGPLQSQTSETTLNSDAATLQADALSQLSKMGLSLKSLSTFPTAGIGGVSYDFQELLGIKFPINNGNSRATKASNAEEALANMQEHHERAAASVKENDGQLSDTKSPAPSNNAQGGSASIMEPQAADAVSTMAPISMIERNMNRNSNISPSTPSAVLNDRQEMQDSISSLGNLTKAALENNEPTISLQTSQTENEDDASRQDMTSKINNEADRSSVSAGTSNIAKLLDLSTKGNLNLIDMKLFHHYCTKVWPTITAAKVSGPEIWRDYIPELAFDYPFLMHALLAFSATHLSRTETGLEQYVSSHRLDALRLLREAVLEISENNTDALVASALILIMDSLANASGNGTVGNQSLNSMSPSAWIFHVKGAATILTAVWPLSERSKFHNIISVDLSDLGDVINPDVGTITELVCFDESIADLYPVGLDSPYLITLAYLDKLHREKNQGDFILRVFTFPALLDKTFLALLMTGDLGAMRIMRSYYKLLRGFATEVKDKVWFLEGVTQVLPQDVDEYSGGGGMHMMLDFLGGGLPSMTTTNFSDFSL
Method: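 Universal 'all 10-mer' protein binding microarrays (Agilent AMADID 015681) probed with GST-tagged S. cerevisiae TFs (full-length or DBD) made by in vitro transcription/translation (PURExpress), about 100-200 nM. Bound TF was detected with fluorescent anti-GST. Each ungapped 8-mer (which stands for itself and its reverse complement) is scored by the PBM enrichment score (E-score), a modified Wilcoxon-Mann-Whitney statistic from -0.5 to +0.5, computed with the Universal PBM Analysis Suite. Scale: above 0.35 generally sequence-specific binding.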

Sequence | PBM E-score
CTTAGTCC | -0.189
TCACTAGA | -0.104
TACCGCTA | 0.0902
TAGCCGAA | 0.0124
CGTGTGGA | -0.0569
AGAACCGC | 0.0996
AGACACTC | -0.145
CAGTAATG | -0.249
ACCAATCT | -0.197
CTGATGAC | -0.0548
GCGGATGA | -0.0327
ATACAATA | 0.0519
ACCCTCGC | 0.0921
CATGAGAG | -0.145
AGGCGTTG | 0.00901
ACACCTCC | -0.218
GTGGATCA | -0.163
AAAAAACG | 0.186
AACCTCCC | -0.015
CGGTGATA | -0.00433
GGAATTTA | 0.1
AAGCAACT | -0.0514
CTATCGCC | -0.141
CAGATTCC | -0.195
CGCTAATC | 0.162

Sequence | PBM E-score
CCGTTAGC | 0.0385
TACCGCGA | 0.0931
GTGAAAGA | 0.0936
CTGACCTC | -0.0552
AGTAGTTG | -0.137
AAATCGTG | 0.0785
GATGTCCA | -0.119
TGAGTGAA | -0.142
GTAGGGCA | -0.0187
ATCCCTTG | -0.0259
CAAGGAAG | -0.273
GAGATACC | 0.061
ATCAGAAG | -0.119
AGGCAGCG | -0.248
CACCTCAC | -0.153
CTTGTATC | -0.0734
GCCGGACC | -0.102
CATTAGTC | -0.139
ACCGTTGG | -0.241
ACATGAGG | -0.214
CTTTTACA | 0.031
ATCCCACA | -0.135
ATTCAGCC | -0.327
ACGGGGTC | 0.17
ACGGCGCA | 0.118

Sequence | PBM E-score
CGAAAGAC | 0.0461
GGTGTAAC | 0.143
GAAAGAGC | 0.0534
CCCAAACG | 0.431
ATGCACGG | -0.192
CCCACGGC | -0.177
GCAGGCCA | -0.174
GAATATGA | -0.13
AGGGTCTA | -0.279
GCACCTCA | -0.171
CATCTTAA | 0.0649
CGAGGTAG | 0.0715
AACCTGAG | 0.0141
CTCAACGC | -0.147
AAATGACG | -0.146
CGCTTCAG | -0.0751
CCAGGATA | 0.0403
CATGCGGA | -0.00811
AGTGCACC | -0.0403
ACACACAG | 0.0116
ACGTTATA | 0.184
ATGATGAG | -0.135
CAGCACGC | -0.0497
CGCACCCA | -0.0122
GTCTACTA | -0.0326

Sequence | PBM E-score
ACAACGGC | 0.0269
ACAACCCA | -0.0333
AGTGCATC | -0.0515
AAGGGAGG | -0.0515
AAGGCGGA | -0.14
CGTCGACG | -0.133
GTAGTTGA | -0.0307
CAGTAAAA | 0.26
ATCGTGAA | 0.133
ACGGTATC | 0.152
CCGATAGA | -0.194
CCTTTAGA | -0.218
CAACAACG | 0.184
CATCATAA | -0.171
AACGGCCC | 0.259
CCAGAAAA | -0.045
CTAATGAC | -0.208
CCGTGGTA | -0.0935
CATGCCCG | 0.0485
GCAAAATA | 0.0486
GCAATAGC | -0.202
CGCAATGA | 0.0774
ATCAGTAA | 0.0909
CTTCTTCA | -0.242
GGTCGACC | 0.102

Sequence | PBM E-score
AGAATAAA | 0.0272
ACAGAGTG | 0.0408
AATGATAT | 0.0632
GTGCCTAA | -0.152
GACGGCTA | -0.0205
AGGGACAT | -0.0447
TAAGAATA | 0.117
ATGCGTCG | 0.0744
AACGGCGG | 0.288
CAACAGGG | -0.22
AGCGACCG | 0.193
ACCTCCGC | -0.25
CAGACCAA | -0.11
CAAGGTTA | 0.0313
AATAATTG | -0.0972
CAAGCACA | -0.274
CTTGTTCA | -0.159
ATAACGAA | 0.197
CCGTACGG | 0.374
AAAGTATA | 0.0969
ACAGTGGG | -0.0429
GCGGTACC | 0.0215
GTCGTGAA | 0.0602
TGCCAGCA | -0.235
TCACAGCA | -0.0683

Sequence | PBM E-score
GAATTAGC | -0.0225
GAGATCAC | -0.0901
AGAAGTAC | -0.0345
AAAGTAAT | -0.0147
TGCGCAAA | 0.0117
AACACACA | -0.0132
CATTTCTA | 0.0515
AGAGTTGA | 0.14
AGATTTCG | 0.293
TGTACCAA | 0.03
ACCGGCCG | 0.00105
GAACCCAC | 0.0834
GACGGGAA | 0.0979
GAAGTCCC | -0.176
ATGATACG | 0.354
CTCTGGCC | -0.103
GTGACCAA | -0.0895
CAAGCAAC | -0.0707
ACCGAAGA | 0.0781
CTCGGCAA | 0.0527
AATTCTAG | 0.0622
ATTGGCTA | 0.044
GTAACGTA | 0.283
CTTTATCC | 0.0916
AGTTTAGA | -0.00847

Sequence | PBM E-score
AAACACGT | -0.0244
CCTATAAG | 0.133
AGGTGGAA | -0.0211
ACAAGTCG | 0.0441
ACAGATCC | 0.0533
AATCAATT | -0.1
AGGATACC | -0.137
AGGCACTA | -0.0737
AGCTAGCG | 0.0852
ATACGTCC | 0.238
CCCCCTGC | -0.125
AGTCCTGC | -0.166
CTGAGCAC | -0.174
GCAGACGC | -0.0316
AAGGGGTC | -0.176
GAGGTACA | -0.065
GCCTCCCC | -0.149
CTCGTCGA | -0.029
AACTGAAT | -0.0422
CTATTCGC | 0.06
GTAATCAA | 0.00463
AACTATCT | 0.155
